US6258839A, “Isolation of naturally occuring isoflavanone and some clinical uses thereof” (priority 1997, dated 2001)

Assays:
Thiazolo/V1081 = assay: activity against HIV mutants: Thiazolo/V1081; assay type: cell-based, HIV-1; details: Human immunodeficiency virus 1
A17/Y181C, K103N = assay: activity against HIV mutants: A17/Y181C, K103N; assay type: cell-based, HIV-1

Q: Which results are given for `COc1c(O)cc(C2COc3cc(O)cc(O)c3C2=O)cc1CC=C(C)C` (racemic) [PMZ-1]?
A: EC50 (Thiazolo/V1081): > 5 µM; EC50 (A17/Y181C, K103N; Human immunodeficiency virus 1): 4.2 µM; activity against double mutants (codons 103 and 181) (A17/Y181C, K103N; isolated by Merck Sharp & Dohme): moderate activities
